Results reported in PubChem BioAssay AID1240 (Sanford-Burnham Center for Chemical Genomics, 2008).
In all, about 50,000 compounds went through this assay and about 800 (1.6%) showed an effect of 50% or more. Some of the results follow.

These compounds were tested against Bcl-2-like protein 10 (Homo sapiens) (UniProt Q9HD36) (assay: TR3 peptide-Bcl-B binding displacers, biochemical primary FP assay, phenotype converters (AID 1240;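 further: 0% = Bcl-B with tracer peptide and DMSO and 100% = tracer peptide lacking Bcl-B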)). Conditions: GST-Bcl-B / FITC-TR3 peptide fluorescence polarization; stronger effect = higher value; compound at 3.75 mg/L.
Sequence of UniProt Q9HD36 (Q9HD36 whole entry, looked up): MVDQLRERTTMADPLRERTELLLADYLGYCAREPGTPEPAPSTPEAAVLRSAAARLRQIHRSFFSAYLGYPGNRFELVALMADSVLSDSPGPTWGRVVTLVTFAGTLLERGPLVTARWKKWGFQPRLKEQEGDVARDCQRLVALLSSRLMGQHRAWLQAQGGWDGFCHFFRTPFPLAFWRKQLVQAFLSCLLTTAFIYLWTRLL

| SMILES | displacement [%] |
| --- | --- |
| O=C(Nc1ccc(Cl)cc1)c1ccc(I)cc1 | 9.1 |
| COc1ccccc1NC1C=CC(=O)C1Nc1ccccc1OC (stereo unspecified) | 8 |
| O=C(NN=C1CCC(c2ccccc2)CC1)c1ccccc1I (stereo unspecified) | 4.8 |
| COc1ccc(CNCc2cc(OC)c(OC)cc2OC)cc1 | 4.2 |
| O=C(NCCN1CCN(S(=O)(=O)c2ccc3ccccc3c2)CC1)C(=O)Nc1ccccc1 | 11.3 |
| CC(=O)Nc1cc(C23CC4CC(CC(C4)C2)C3)ccc1C | -3.3 |
| O=C(CSc1nc2ccccc2o1)Nc1ncccn1 | -2.6 |
| CC(C)c1ccccc1NC(=O)COc1ccc2ccccc2c1 | -6.9 |
| CCOc1cc(C=O)ccc1OCCN1CCOCC1 | 13.5 |
| CCc1c(C)nc2ccc(Br)cc2c1SCC(=O)O | 1 |
| COc1ccc(C2Nc3ccccc3C(=O)N2Cc2ccco2)cc1OC (stereo unspecified) | 12.9 |
| COc1cccc(/C=N/NC(=O)CSc2ccc3ccccc3n2)c1 | -7.5 |
| CC(=O)N/N=C\c1cc(C)cc(/C=N\NC(C)=O)c1O | 41.7 |
| O=C(/C=C/c1ccc([N+](=O)[O-])cc1)Nc1ccc(S(=O)(=O)N2CCOCC2)cc1 | 6.3 |
| O=C(NC1CCCCCCC1)c1cnccn1 | -8.3 |
| O=[N+]([O-])c1ccc(N2CCN(c3ccc(C(F)(F)F)cc3[N+](=O)[O-])CC2)cc1NCc1ccccc1 | -9.4 |
| O=C(Nc1ccc(I)cc1Cl)c1ccc([N+](=O)[O-])cc1 | -1.1 |
| COc1cc(CN2CCN(Cc3ccccc3Br)CC2)cc(OC)c1O | -1.3 |
| O=C(O)c1ccc(-n2c(O)c(/C=C3\C=Nc4ccccc43)sc2=S)cc1 | -137 |
| O=C1NN(c2ccccc2)C(=O)/C1=C/c1ccc(OCc2ccc(F)cc2)cc1 | -11.9 |
| COc1ccc(/C=N/NC(=O)Cc2nnc(N)s2)cc1OC | 35.4 |
| COC(=O)CSc1nc2sc3c(c2c(=O)n1-c1ccc(OC)cc1)CCN(Cc1ccccc1)C3 | -37.8 |
| COc1ccc(CC(=O)Nc2ccc(Cl)cc2)cc1OC | 8.5 |

| SMILES | displacement [%] |
| --- | --- |
| Cc1c(C(=O)Nc2cccc(C(=O)O)c2)cccc1[N+](=O)[O-] | 3.8 |
| COc1ccc(-c2cc(C(F)(F)F)n3nc(C(=O)O)c(Cl)c3n2)cc1 | 3.2 |
| Cc1nn2c(C(F)(F)F)cc(-c3ccc(Cl)cc3)nc2c1C(=O)NCc1ccco1 | -11.4 |
| O=c1oc2c(CN3CCOCC3)c(O)ccc2cc1-c1nc2ccccc2[nH]1 | 139 |
| CCOC(=O)C1=C(O)/C(=C/c2cc(C)n(-c3cccc(Cl)c3)c2C)N=C1C | 20.3 |
| Cc1ccccc1N1C(=O)C2C3c4ccccc4C(C)(c4ccccc43)C2C1=O (stereo unspecified) | 1.4 |
| CC(=O)c1c(C)oc2ccc(OC(=O)c3cccc(Cl)c3)cc12 | 9.1 |
| CC(=O)Nc1cccc(/C(C)=N/N=C2/NC(=O)C(CC(=O)Nc3ccc(C(=O)O)cc3)S2)c1 (stereo unspecified) | 10.5 |
| Cc1cc(=O)oc2cc(OCC(=O)OC(C)(C)C)ccc12 | -7.7 |
| Clc1ccc(N2COc3ccc4ccccc4c3C2)cc1 | 26.7 |
| COc1cc(/C=C2\C(=O)NC(=S)N(c3ccc(Br)cc3)C2=O)ccc1OCC(=O)O | 2.2 |
| O=C(NC(Cc1ccccc1)C(=O)Nc1ccccc1)OCc1ccccc1 (stereo unspecified) | 9.4 |
| COc1ccc(Br)cc1C(=O)Nc1ccc(-c2nc3ncccc3o2)cc1 | 5.4 |
| Cc1ccc(C(=O)N/N=C\c2cc(Cc3ccccc3Cl)ccc2O)cn1 | -8.8 |
| CCCC(C)NS(=O)(=O)c1ccc(Cl)cc1 (stereo unspecified) | -7.9 |
| O=C(/C=C/c1cccc([N+](=O)[O-])c1)Nc1ccc2oc(-c3ccccc3)nc2c1 | -6.5 |
| COC(=O)c1sc(NC(=O)C(Sc2ccccc2)c2ccccc2)c(C#N)c1C (stereo unspecified) | 3.3 |
| CC1=CC(C)C2C(=O)N(c3ccccc3)C(=O)C2C1 (stereo unspecified) | -0.9 |
| O=C(O)c1cccc(-c2ccc(/C=C3\SC(=O)N(c4ccc(Cl)cc4)C3=O)o2)c1 | -0.6 |
| Cc1ccccc1C(=O)Nc1nc2ccc(Br)cc2s1 | -3.1 |
| Cc1ccc(N2CC(C(=O)N/N=C/c3c(F)cccc3Cl)CC2=O)cc1 (stereo unspecified) | -0.4 |
| CCOC(=O)C1=C(C)N=c2s/c(=C\c3cccc(OC)c3O)c(=O)n2C1c1ccccc1 (stereo unspecified) | -0.2 |
| O=C(Nc1ccccc1F)c1ccn(C(=O)c2cccc(Cl)c2)n1 | 4.8 |

| SMILES | displacement [%] |
| --- | --- |
| CCOc1ccc(CNc2ccc3c(c2)ncn3C)cc1 | -2.7 |
| CCc1ccc(-c2nc3cc(NC(=O)COc4ccc(OC)cc4)ccc3o2)cc1 | 4.2 |
| CCCc1nc(C)c(-c2ccc(OC)c(OC)c2)c(=O)[nH]1 | -13.4 |
| COc1ccc(/C=C/C(=O)N2CCN(CCN3C(=O)c4cccc5cccc(c45)C3=O)CC2)cc1 | 35 |
| O=C(CN(c1ccc(F)cc1)S(=O)(=O)c1ccccc1)Nc1cccc(C(F)(F)F)c1 | 4.5 |
| CCOC(=O)c1c(N/C=C(\C=O)c2nc3cc(Cl)ccc3o2)sc2c1CCCC2 | -5.9 |
| Cc1ccc(COc2ccc3c4c(c(=O)oc3c2)CCCC4)cc1 | 7.5 |
| O=C(Nc1nccs1)c1ccc2c(c1)C(=O)N(c1cccc(C(=O)c3ccccc3)c1)C2=O | 1.3 |
| Cc1sc(/N=C/c2cc(Br)ccc2O)c(C#N)c1C | 2.2 |
| O=C(c1cccnc1)N1CCN(S(=O)(=O)c2ccccc2)CC1 | -7.2 |
| CCNC(=S)Nc1ccccc1Cl | -7.9 |
| CCC1=NN2C(=N)/C(=C/c3cccs3)C(=O)N=C2S1 | 13.9 |
| CCOC(=O)c1c(C)n(-c2ccccc2OC)c2c1cc(O)c1ccccc12 | 12.8 |
| CCOc1cc(/C=c2\sc3nc4cc(C)c(C)cc4n3c2=O)ccc1O | -1.4 |
| CCCN(CCC)C1=CC(=O)C(C(C)(C)C)=CC1=O | 0.8 |
| Cc1ccc(Br)cc1S(=O)(=O)N1CCN(C)CC1 | 13.1 |
| CC(C)CNC(=O)Nc1cccc(Cl)c1 | 2.8 |
| Cc1ccc(N2C(=O)/C(=C/c3ccccc3C(=O)O)SC2=S)c(C)c1 | 2.3 |
| Cc1c(NC(=O)c2ccc(CN(c3ccccc3)S(C)(=O)=O)cc2)c(=O)n(-c2ccccc2)n1C | 11.9 |
| CCCOc1ccc(-c2nnc(NC(=O)Nc3ccccc3)s2)cc1 | 6.6 |
| Cc1cc(C)cc(NC(=O)c2ccc(I)cc2)c1 | 15 |
| CCOC(=O)c1c(NC(=O)c2ccc(Cl)cc2)sc2c1CC(C)(C)OC2 | -7.1 |
| O=C(Nc1ccc(Br)cn1)c1cc2n(n1)C(C(F)(F)F)CC(c1cccs1)N2 (stereo unspecified) | -6.1 |

| SMILES | displacement [%] |
| --- | --- |
| Clc1cccc(Cl)c1OCCCN1CCCCC1 | 7.6 |
| COC(=O)c1c(-c2ccc(Cl)cc2)csc1NC(=O)CCCC(=O)O | 2.8 |
| COc1ccccc1C(=O)N1CCN(Cc2ccccc2C)CC1 | -3.5 |
| O=C1C2C3C=CC(C4CC34)C2C(=O)N1c1cccnc1 (stereo unspecified) | 1.3 |
| COCCN1C(=O)C(=O)/C(=C(/O)c2ccccc2)C1c1ccc([N+](=O)[O-])cc1 (stereo unspecified) | -18.1 |
| Cc1ccc(Cl)c(OCCCCNC(C)(C)C)c1 | -19.3 |
| COc1ccc2c(C)c(C(=O)O)oc2c1OC | 18.9 |
| CN1C(=O)C2(OCCO2)c2cc([N+](=O)[O-])ccc21 | -5.7 |
| CC(=O)Nc1ccccc1NC(=O)c1ccc(Cl)cc1 | 11.4 |
| COc1cc([N+](=O)[O-])ccc1NC(=O)c1ccc(I)cc1 | -11.9 |
| O=C(O)C(Cc1c[nH]c2ccccc12)NS(=O)(=O)c1ccc([N+](=O)[O-])cc1 (stereo unspecified) | 5.5 |
| Nn1cnc2scc(-c3ccccc3)c2c1=O | 1.9 |
| Cc1onc(-c2c(F)cccc2Cl)c1C(=O)NCc1ccco1 | -8 |
| CCCCOC(=O)COc1ccc2c3c(c(=O)oc2c1C)CCC3 | 9.1 |
| COc1cc(CN2CCN(Cc3cccc([N+](=O)[O-])c3)CC2)c([N+](=O)[O-])cc1OC | -0.3 |
| COc1cc(OC)c(/C=N/n2c(C)nnc2C)c(OC)c1 | 2.8 |
| CCCC1=NN2C(=N)/C(=C/c3ccc(-c4ccccc4C(=O)OC)o3)C(=O)N=C2S1 | -37 |
| COC(C)(C)CNS(=O)(=O)c1ccc(Cl)cc1 | 2.2 |
| CCOc1cc(C=O)ccc1OCc1ccc(Cl)c(Cl)c1 | -5.6 |
| O=C(O)C1(P(=O)(c2ccc(Cl)cc2)c2ccc(Cl)cc2)CCCC1 | -10.4 |
| CCOc1cc(/C=C2\SC(=S)N(CC(C)C)C2=O)ccc1O | 15.9 |
| CN1C(=O)/C(=N/OC(=O)c2ccc(Cl)cc2)c2ccccc21 | 0.7 |
| O=C(N/N=C\c1cc(Cl)cc([N+](=O)[O-])c1O)c1ccc(Br)cc1 | 11.8 |

| SMILES | displacement [%] |
| --- | --- |
| C/C(=N\NC(=O)c1n[nH]c2c1CCCC2)c1ccc([N+](=O)[O-])cc1 | -6.9 |
| Cc1ccc(N2C(=O)C=CC2=O)c(Br)c1 | 8.5 |
| CC(C)CCNC(=O)c1ccc(Cl)c([N+](=O)[O-])c1 | 12.8 |
| OCc1nc2ccccc2n1/N=C/c1ccccc1 | 1.5 |
| O=C(Nc1ccc(-c2nnc(-c3ccccc3)o2)cc1)c1cccs1 | 15.3 |
| CC1=C(C(=O)Nc2ccc(Br)cc2)C(c2ccc(C)cc2)NC(=S)N1 (stereo unspecified) | 6.5 |
| COC(=O)C1=C(C)NC(=O)NC1c1ccc(SC)cc1 (stereo unspecified) | -14.9 |
| CC(C)(CO)NCC(=O)NCCNc1ccc([N+](=O)[O-])cc1Cl | 9.2 |
| COc1ccc(CNc2nccs2)cc1 | 7.8 |
| O=C(COc1ccccc1)Nc1ccncc1 | 14 |
| Cc1ccc(N2C(=O)C3C4C=CC(CC4)C3C2=O)c([N+](=O)[O-])c1 (stereo unspecified) | 4.7 |
| CCN1C(=O)c2cccc3c(NC(=O)c4ccc(Oc5ccccc5)cc4)ccc1c23 | -14.2 |
| N/C(=N/OC(=O)c1ccc(Br)cc1)c1nonc1N | 8.4 |
| CCN(C=NC1=NN(c2ccccc2)CC1)CC | 10 |
| COc1ccc(C(=O)Nc2ccccc2C)cc1OC | 1.8 |
| O=C(Cc1nnc(NC(=O)Nc2cccc(Cl)c2)s1)Nc1ccccc1 | 1.3 |
| COc1cc(/C=N/NC(=O)Cc2n[nH]c(=O)[nH]c2=O)cc(Br)c1O | 6.6 |
| COc1ccc(Br)cc1C(=O)Nc1cccc(NC(=O)c2ccccc2C)c1 | -3.3 |
| Cc1ccc(-c2nc3cc(Cl)cc(Cl)c3o2)cc1NC(=O)COc1ccc([N+](=O)[O-])cc1 | 2.6 |
